The text below walks through data of ChEMBL document CHEMBL5606460, “ASAP - DENV-2 NS2B-NS3 protease fluorescence single point” (2024).

Among all 2,000 compounds or so, about 110 (5.5%) showed an effect of 50% or more. This is one part of the list.

This experiment has as its target Genome polyprotein (dengue virus type 2) (UniProt P29990).
[1] abbreviates: Thailand/16681/1984, Concentration 25.0 uM, Number of replicates 1.0.

As usually defined, the inhibition is the drop in the measured response relative to a control, in per cent. For the compound `COc1cccc(OCCCNC(=O)C2CCN(c3ccc(C=O)cc3)CC2)c1`, under setting [1], the inhibition was found to be 9.09%.

In the case of `C[C@H]1CN(Cc2ccccc2)CCN1C(=O)C1CCN(c2ccc(C=O)cc2)CC1`, the inhibition under setting [1] amounted to 14.9%.

For the compound `COc1nccc(-c2nn(C)cc2NC(=O)c2ccccc2C(F)(F)F)c1F`, the inhibition reads like this: (Thailand/16681/1984, Concentration 49.5 uM, Number of replicates 2.0, Standard deviation 2.2857135361205057 %) -3.27%; (Thailand/16681/1984, Concentration 99.01 uM, Number of replicates 2.0, Standard deviation 3.896359145180687 %) -1.87%; (Thailand/16681/1984, Concentration 198.0 uM, Number of replicates 2.0, Standard deviation 6.149202607028637 %) -0.776%.

As to `N[C@H]1CC[C@H](NC(=O)[C@@H](NC(=O)OCc2ccccc2)c2ccc(OCc3ccccc3)cc2)C1`, the inhibition was -9.06% (Thailand/16681/1984, Concentration 49.5 uM, Number of replicates 2.0, Standard deviation 0.9979193615621401 %); -6.13% (Thailand/16681/1984, Concentration 49.5 uM, Number of replicates 2.0, Standard deviation 5.780389191288721 %); -6.77% (Thailand/16681/1984, Concentration 99.01 uM, Number of replicates 2.0, Standard deviation 0.21863424783935215 %); -4.83% (Thailand/16681/1984, Concentration 99.01 uM, Number of replicates 2.0, Standard deviation 4.8738871027899835 %); 3.56% (Thailand/16681/1984, Concentration 198.0 uM, Number of replicates 2.0, Standard deviation 0.20009536646595624 %); 6.71% (Thailand/16681/1984, Concentration 198.0 uM, Number of replicates 2.0, Standard deviation 2.9330264990309507 %).

On to `Cc1sc(NC(=O)C2CCN(c3ccc(C=O)cc3)CC2)nc1-c1ccc(Cl)cc1`, for which, under setting [1], the inhibition is 14.7%.

`Cc1cnc(NC(=O)C2CCN(c3ccc(C=O)cc3)CC2)c([N+](=O)[O-])c1`: the inhibition under setting [1] is 14.4%.

In the case of `Cc1cc(NC(=O)C2CCN(c3ccc(C=O)cc3)CC2)c(Cl)cc1F`, the inhibition under setting [1] came to 12.9%.

`Cc1c(C2CCN(C(=O)OC(C)(C)C)CC2)cnn1CC(=O)N[C@H]1CCS(=O)(=O)C1`: the inhibition is, setting by setting: (Thailand/16681/1984, Concentration 49.5 uM, Number of replicates 2.0, Standard deviation 2.1490874038550443 %) -2%; (Thailand/16681/1984, Concentration 99.01 uM, Number of replicates 2.0, Standard deviation 2.4294495888486636 %) -2.38%; (Thailand/16681/1984, Concentration 198.0 uM, Number of replicates 2.0, Standard deviation 2.506735571515394 %) -2.55%.

Regarding `NCc1cn([C@H]2CCCN(C(=O)c3cccc4cn[nH]c34)C2)nn1`, the inhibition is -1.58% (Thailand/16681/1984, Concentration 49.5 uM, Number of replicates 2.0, Standard deviation 0.5240237372409225 %); -1.12% (Thailand/16681/1984, Concentration 99.01 uM, Number of replicates 2.0, Standard deviation 1.5059779963935036 %); -1.28% (Thailand/16681/1984, Concentration 198.0 uM, Number of replicates 2.0, Standard deviation 0.5927394954377506 %).

In the case of `O=C(Nc1nc(CO)cs1)[C@]1(c2ccc(F)cc2)CCCNC1`, the inhibition is, setting by setting: (Thailand/16681/1984, Concentration 49.5 uM, Number of replicates 2.0, Standard deviation 1.5147159258078087 %) 0.359%; (Thailand/16681/1984, Concentration 99.01 uM, Number of replicates 2.0, Standard deviation 0.700183486969057 %) 2.21%; (Thailand/16681/1984, Concentration 198.0 uM, Number of replicates 2.0, Standard deviation 0.48828590710198916 %) 2.6%.

Take `Cn1cc2ccc(C(=O)N3CC[C@H](c4c[nH]c5ccccc45)C3)cc2n1`: the inhibition (Thailand/16681/1984, Concentration 49.5 uM, Number of replicates 2.0, Standard deviation 1.3492181697145964 %) is -0.744%; the inhibition (Thailand/16681/1984, Concentration 99.01 uM, Number of replicates 2.0, Standard deviation 0.35485686617717016 %) was 1.18%; the inhibition (Thailand/16681/1984, Concentration 198.0 uM, Number of replicates 2.0, Standard deviation 0.7962509061223633 %) is 4.41%.

`O=Cc1ccc(N2CCC(C(=O)N[C@@H](CC(=O)N3CCn4c(nnc4C(F)(F)F)C3)Cc3cc(F)c(F)cc3F)CC2)cc1`: the inhibition under setting [1] was -0.377%.

Take `c1ccc2c(CN3CCC(c4cscn4)CC3)c[nH]c2c1`: the inhibition runs as follows: (Thailand/16681/1984, Concentration 49.5 uM, Number of replicates 2.0, Standard deviation 0.8952803214953182 %) -4.85%; (Thailand/16681/1984, Concentration 99.01 uM, Number of replicates 2.0, Standard deviation 0.9816046536783611 %) -3.3%; (Thailand/16681/1984, Concentration 198.0 uM, Number of replicates 2.0, Standard deviation 1.533367781808638 %) -1.56%.

Take `O=Cc1ccc(N2CCC(C(=O)Nc3ccc([N+](=O)[O-])cc3Cl)CC2)cc1`: the inhibition under setting [1] amounted to 23.5%.

For `Cc1cc(CO)c2cccc(Nc3cncc(C(=O)O)c3)c2n1`, the inhibition runs as follows: (Thailand/16681/1984, Concentration 49.95 uM, Number of replicates 2.0, Standard deviation 0.9951639691938919 %) 14%; (Thailand/16681/1984, Concentration 99.9 uM, Number of replicates 2.0, Standard deviation 2.420687048309006 %) 24.2%.

Regarding `O=Cc1ccc(N2CCC(C(=O)NCc3cc(C(F)(F)F)ccc3C(F)(F)F)CC2)cc1`, under setting [1], the inhibition stood at 1.04%.

With `Cc1cc(CO)c2cccc(Cc3ccccc3C(=O)NCc3c(C)noc3C)c2n1`, the inhibition was -0.757% (Thailand/16681/1984, Concentration 49.95 uM, Number of replicates 2.0, Standard deviation 0.3226747127660098 %) and 0.39% (Thailand/16681/1984, Concentration 99.9 uM, Number of replicates 2.0, Standard deviation 0.21847019123152348 %).

Turning to `COc1cc(CS(=O)(=O)CCC(C)(C)OC)nc(N2CCNCC2)n1`, the inhibition came to 1.79% (Thailand/16681/1984, Concentration 49.5 uM, Number of replicates 2.0, Standard deviation 0.83675183590521 %); 1.85% (Thailand/16681/1984, Concentration 99.01 uM, Number of replicates 2.0, Standard deviation 0.5045439696213695 %); 1.15% (Thailand/16681/1984, Concentration 198.0 uM, Number of replicates 2.0, Standard deviation 0.3376271923590682 %).

Consider `CNC(=O)c1cc(Cl)ccc1NS(=O)(=O)c1cnn(-c2ccccc2)c1`, for which the inhibition (Thailand/16681/1984, Concentration 49.5 uM, Number of replicates 2.0, Standard deviation 1.1925793018567374 %) is -3.02% and the inhibition (Thailand/16681/1984, Concentration 99.01 uM, Number of replicates 2.0, Standard deviation 1.756579156322849 %) is -7.26%.
